Assay results reported in the supplement of paper PMC6531468.
The list shows a part of the results. These are enrichments in a pooled selection; single values are uncertain. Scores sum up all selected molecules that hold the word; the word was not tested alone.

Experiments:
Assay in all cases: 6-mer SELEX enrichment z-score vs GST control; IMP3 is the RNA-binding protein IGF2BP3; higher = more enriched by binding
[1] = test system: IMP3 KH1-4; conditions: construct: KH1-4 (164-579); SELEX round: R4
IMP3 KH1-4, sequence (chain, as listed by the source): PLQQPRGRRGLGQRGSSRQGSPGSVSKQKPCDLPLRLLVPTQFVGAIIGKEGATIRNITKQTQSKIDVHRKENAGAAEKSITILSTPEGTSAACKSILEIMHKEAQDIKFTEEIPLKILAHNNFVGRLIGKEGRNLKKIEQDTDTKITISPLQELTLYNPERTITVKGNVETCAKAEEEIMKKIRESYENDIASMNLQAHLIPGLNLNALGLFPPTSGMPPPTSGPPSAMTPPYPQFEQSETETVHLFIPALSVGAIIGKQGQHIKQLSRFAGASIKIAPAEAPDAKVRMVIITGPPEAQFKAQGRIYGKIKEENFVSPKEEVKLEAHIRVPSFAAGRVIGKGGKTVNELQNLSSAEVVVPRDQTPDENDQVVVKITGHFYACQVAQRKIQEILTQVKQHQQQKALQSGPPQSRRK
Method: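 SELEX-seq with GST-tagged IMP3 KH1-4 (Pro164-Lys579) and an N40 RNA pool, round 4. 6-mer z-score of sequence-tag enrichment normalised to the corresponding GST SELEX round; RNA k-mers written as DNA (T for U).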

[2] = test system: IMP3 RRM1-2; conditions: construct: RRM1-2 (1-163); SELEX round: R2
IMP3 RRM1-2, sequence (chain, as listed by the source): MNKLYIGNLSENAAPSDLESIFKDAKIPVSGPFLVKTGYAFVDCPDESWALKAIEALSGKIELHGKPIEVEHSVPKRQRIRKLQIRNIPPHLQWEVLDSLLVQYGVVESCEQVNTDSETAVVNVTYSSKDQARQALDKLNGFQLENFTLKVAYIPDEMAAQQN
Method: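 SELEX-seq with GST-tagged IMP3 RRM1-2 (Met1-Asn163) and an N40 RNA pool, round 2. 6-mer enrichment z-score normalised to GST SELEX. RNA written as DNA (T = U).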

[3] = target: IMP3 full-length (UniProt O00425); conditions: construct: FL IMP3 (1-579); SELEX round: R4
UniProt O00425, sequence (O00425 whole entry): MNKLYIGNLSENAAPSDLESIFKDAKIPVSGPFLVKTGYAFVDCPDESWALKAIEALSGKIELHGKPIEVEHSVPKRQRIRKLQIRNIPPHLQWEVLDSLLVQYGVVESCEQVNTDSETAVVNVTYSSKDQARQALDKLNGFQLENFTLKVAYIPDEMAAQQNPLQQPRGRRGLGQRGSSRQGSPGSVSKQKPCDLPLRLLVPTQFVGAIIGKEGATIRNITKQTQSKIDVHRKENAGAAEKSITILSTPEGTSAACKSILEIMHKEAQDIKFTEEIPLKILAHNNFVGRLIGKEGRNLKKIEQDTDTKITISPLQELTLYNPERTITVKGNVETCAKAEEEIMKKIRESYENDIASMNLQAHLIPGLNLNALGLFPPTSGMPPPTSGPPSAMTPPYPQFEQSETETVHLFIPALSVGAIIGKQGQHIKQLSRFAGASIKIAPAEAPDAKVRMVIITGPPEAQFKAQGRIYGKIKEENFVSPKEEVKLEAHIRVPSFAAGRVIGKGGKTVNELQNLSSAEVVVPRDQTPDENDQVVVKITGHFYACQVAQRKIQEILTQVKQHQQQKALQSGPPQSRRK
Method: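 SELEX-seq with GST-tagged full-length IMP3 and an N40 RNA pool, round 4. Each 6-mer is scored as an enrichment z-score of sequence tags containing it, normalised to the matching GST SELEX round. RNA written as DNA (T = U).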

[4] = test system: IMP3 KH1-2; conditions: construct: KH1-2 (164-376); SELEX round: R4
IMP3 KH1-2, sequence (chain, as listed by the source): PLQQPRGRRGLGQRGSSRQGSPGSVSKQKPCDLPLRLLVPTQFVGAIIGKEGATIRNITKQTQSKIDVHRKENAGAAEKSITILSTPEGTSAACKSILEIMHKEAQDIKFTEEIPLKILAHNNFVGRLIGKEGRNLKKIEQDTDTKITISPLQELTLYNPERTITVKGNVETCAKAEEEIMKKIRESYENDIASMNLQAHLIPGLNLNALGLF
Method: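 SELEX-seq with GST-tagged IMP3 KH1-2 (Pro164-Phe376) and an N40 RNA pool, round 4 (stringent 300/600 mM KCl washes). 6-mer z-score of sequence-tag enrichment normalised to the corresponding GST SELEX round; RNA k-mers written as DNA (T for U).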

[5] = test system: IMP3 KH3-4; conditions: construct: KH3-4 (377-579); SELEX round: R4
IMP3 KH3-4, sequence (chain, as listed by the source): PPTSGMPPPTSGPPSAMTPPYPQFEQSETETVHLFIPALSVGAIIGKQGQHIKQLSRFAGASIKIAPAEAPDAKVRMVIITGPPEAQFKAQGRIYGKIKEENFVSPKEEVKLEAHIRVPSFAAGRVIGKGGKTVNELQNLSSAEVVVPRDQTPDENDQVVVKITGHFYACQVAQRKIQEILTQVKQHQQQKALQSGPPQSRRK
Method: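 SELEX-seq with GST-tagged IMP3 KH3-4 (Pro377-Lys579) and an N40 RNA pool, round 4. 6-mer z-score of sequence-tag enrichment normalised to the corresponding GST SELEX round; RNA k-mers written as DNA (T for U).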

Row | Sequence | 6-mer SELEX enrichment z-score [1] | 6-mer SELEX enrichment z-score [2] | 6-mer SELEX enrichment z-score [3] | 6-mer SELEX enrichment z-score [4] | 6-mer SELEX enrichment z-score [5]
1 | GCCCGT | -0.583 | -0.293 | -0.052 | -0.44 | -0.689
2 | TATTTT | 1.25 | 0.38 | 0.431 | 1.16 | 1.85
3 | GCGTTG | -1.35 | 0.249 | -0.595 | -1.14 | -0.955
4 | CGGGAA | -0.107 | -0.89 | -0.164 | -0.039 | 0.024
5 | TAGAGG | 0.812 | -0.04 | 0.345 | 0.693 | 1.01
6 | CTCGAG | -0.807 | 0.633 | 0.095 | -0.568 | -0.465
7 | CTGTAT | 0.481 | 0.128 | 0.079 | 0.448 | 0.517
8 | GTAATC | -0.219 | 0.136 | -0.098 | -0.324 | -0.203
9 | TCACTA | 1.17 | 1.37 | 0.834 | 1.12 | 0.764
10 | TTTCAG | 0.374 | 0.547 | 0.499 | 0.42 | 0.459
11 | GTGGTC | -0.073 | 0.364 | 0.184 | -0.077 | 0.03
12 | GACGGT | -0.251 | -0.232 | -0.081 | -0.277 | -0.2
13 | AATAGT | 0.663 | -0.232 | 0.091 | 0.44 | 0.862
14 | CAAGAA | -0.231 | -0.875 | -0.674 | -0.169 | 0.199
15 | CTAAAC | -0.726 | -0.869 | -1.51 | -0.659 | -0.805
16 | TATCAA | 0.504 | 1.14 | 0.636 | 0.645 | 0.733
17 | GAAGCC | -0.887 | -1.13 | -0.71 | -0.718 | -1.06
18 | GCCGGC | 0.808 | 0.174 | 1.24 | 0.767 | 0.528
19 | GTCCTT | 0.284 | 0.164 | 0.013 | 0.173 | 0.159
20 | AGCGAT | -1.3 | -0.267 | -0.655 | -1.2 | -1.04

Row | Sequence | 6-mer SELEX enrichment z-score [1] | 6-mer SELEX enrichment z-score [2] | 6-mer SELEX enrichment z-score [3] | 6-mer SELEX enrichment z-score [4] | 6-mer SELEX enrichment z-score [5]
21 | ATGGTG | 0.542 | 0.218 | 0.198 | 0.4 | 0.547
22 | ATGGGT | 0.311 | 0.308 | 0.183 | 0.307 | 0.537
23 | ACCGAG | -3.46 | -1.13 | -1.27 | -3.13 | -3.15
24 | AGCAGT | 0.215 | 0.338 | 0.543 | 0.051 | 0.044
25 | CACGAG | -2.65 | -0.089 | -0.392 | -2.49 | -2.41
26 | CCAAAA | -3.37 | -2.4 | -3.63 | -3.21 | -3.41
27 | CACTTA | 1.24 | 0.633 | 0.544 | 1.17 | 0.971
28 | GTTCAA | -0.004 | 0.357 | 0.25 | -0.002 | 0.032
29 | AGCTTC | -0.328 | 0.317 | 0.046 | -0.211 | -0.224
30 | TAGAAG | 0.354 | -0.535 | -0.274 | 0.191 | 0.722
31 | ATATCA | 1.9 | 1.77 | 1.74 | 2.07 | 2.04
32 | GTAGTT | -0.739 | 0.431 | -0.487 | -0.644 | -0.529
33 | CCAGAT | 0.22 | -0.375 | -0.158 | 0.17 | 0.061
34 | TAAAAT | 0.721 | -1.09 | -0.752 | 0.72 | 1.92
35 | GTACCT | -1.37 | 0.058 | -0.829 | -1.22 | -1.31
36 | AGATGA | 1.13 | -1.14 | -0.42 | 0.776 | 1.64
37 | CTTCTA | 0.528 | 0.212 | 0.028 | 0.561 | 0.446
38 | CTACAC | 0.75 | 1.02 | 0.509 | 0.964 | 0.108
39 | CATCTC | -0.016 | 0.768 | 0.758 | -0.006 | -0.429
40 | CAATAA | 1.51 | -0.01 | 0.82 | 2.32 | 2.09

Row | Sequence | 6-mer SELEX enrichment z-score [1] | 6-mer SELEX enrichment z-score [2] | 6-mer SELEX enrichment z-score [3] | 6-mer SELEX enrichment z-score [4] | 6-mer SELEX enrichment z-score [5]
41 | GACCGC | -0.369 | -0.841 | -0.285 | -0.202 | -0.952
42 | CTTTAT | 1.13 | 0.252 | 0.283 | 0.994 | 1.33
43 | AACCCC | -1.17 | -1.56 | -1.97 | -0.95 | -2.22
44 | CCTTTC | 0.479 | 0.191 | -0.069 | 0.447 | -0.021
45 | GTTGCC | -0.732 | 0.015 | -0.471 | -0.624 | -0.783
46 | GCACGG | 1.02 | 0.197 | 1.71 | 0.737 | 0.387
47 | ATAAAC | 1.41 | -0.723 | -0.245 | 1.6 | 2.24
48 | GAGCAT | -0.496 | 0.417 | 0.682 | -0.538 | -0.414
49 | GCACAG | 1.04 | 0.959 | 2.12 | 0.867 | 0.602
50 | GAAACT | -0.475 | -1.3 | -1.15 | -0.408 | -0.164
51 | CCCACG | -1.63 | -0.737 | -1.06 | -1.47 | -2.16
52 | TACGCG | -0.176 | -0.104 | -0.052 | -0.181 | -0.056
53 | TACCCT | -0.728 | -0.219 | -0.595 | -0.712 | -0.985
54 | AGCTGT | -0.471 | 0.094 | -0.342 | -0.456 | -0.431
55 | GCCCTA | -0.791 | -0.434 | -0.699 | -0.698 | -0.889
56 | CAAGAG | -1.41 | -0.547 | -0.682 | -1.31 | -1.17
57 | AGAACG | -0.868 | -1.32 | -0.892 | -0.898 | -0.63
58 | GATCGT | -0.685 | -0.113 | -0.363 | -0.657 | -0.526
59 | ACTAGA | 0.21 | -0.598 | -0.514 | 0 | 0.358
60 | CGCTGT | -0.091 | 0.065 | 0.075 | 0.077 | -0.083
